Assay results reported in the supplement of paper PMC10126150.
Values marked as one replicate rest on one cluster of the flow cell; about a third of the high ones do not repeat.

Tested on: ATP
Experiment: switch fluorescence ratio, 500 uM ATP over buffer (Cy3 cluster intensity, sum of 5 cycles each) (fold (ratio)); higher = stronger signal-on switching upon ATP binding; sequences stand for … in TCGTCGGCAGCGTCAGATGTGTATAAGAGACAGTTTTTTTTTTTTTTTTTTTTTTTTT…TC
Details: aptamer strand: ATP DNA aptamer (quencher-CACCTGGGGGAGTATTGCGGAGGAAGG + anchor), 100 nM annealed; ATP concentration: 500 uM; one replicate
Procedure, shortened: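 Exposure to 500 uM ATP lasted 15 min at 22 °C before imaging, and a selection-buffer image was taken beforehand, for Cy3-labelled switching-strand clusters on a modified Illumina MiSeq flow-cell annealed to 100 nM quencher-labelled ATP aptamer. Five buffer/ATP cycles were run with NaOH stripping and re-annealing between them. The fluorescence ratio per cluster is summed target-cycle over summed buffer-cycle Cy3 intensity, averaged per switch-domain sequence. Clusters outside 100-1000 RFU were excluded.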

Row | Sequence | switch fluorescence ratio
1 | CTTCTTCCGA | 3.87
2 | CTTCTTTAGC | 1
3 | CTTCTTTTG | 1.04
4 | CTTGAAATGG | 1.01
5 | CTTGAATCTG | 1.03
6 | CTTGACAGT | 0.996
7 | CTTGACGAAC | 1.37
8 | CTTGACGGGT | 1.02
9 | CTTGAGCCTT | 1.02
10 | CTTGAGCGCG | 1.03
11 | CTTGAGGCTT | 0.941
12 | CTTGATATG | 0.993
13 | CTTGATGCT | 0.978
14 | CTTGATTATT | 0.993
15 | CTTGCACCTT | 1.12
16 | CTTGCACTCC | 1.67
17 | CTTGCGCCAC | 1.76
18 | CTTGCTCGCA | 1.67
19 | CTTGGAACCG | 1.02
20 | CTTGGAACGG | 0.94
21 | CTTGGAACTA | 0.973
22 | CTTGGACGTG | 0.943
23 | CTTGGAGAGC | 0.982
24 | CTTGGCCCGA | 1.01
25 | CTTGGCTGGC | 0.925
26 | CTTGGGA | 1.05

Row | Sequence | switch fluorescence ratio
27 | CTTGGGAATG | 0.975
28 | CTTGGGCTTA | 1.01
29 | CTTGGGTGCG | 0.973
30 | CTTGGTGTCC | 1.02
31 | CTTGTAATAG | 1.4
32 | CTTGTAATCC | 1.14
33 | CTTGTATCCG | 0.964
34 | CTTGTCGTTG | 0.98
35 | CTTGTGAACA | 0.985
36 | CTTGTGGAGA | 1.01
37 | CTTGTGGGAA | 0.98
38 | CTTGTTGAGT | 0.995
39 | CTTTACGGCT | 1.1
40 | CTTTAGGGAT | 1
41 | CTTTATGAAC | 0.989
42 | CTTTCTGGTG | 1.15
43 | CTTTGAAGCT | 1.01
44 | CTTTGACTGA | 0.989
45 | CTTTGGAAGG | 0.973
46 | CTTTGGCTGT | 0.951
47 | CTTTGTCCTC | 0.973
48 | CTTTTAACCC | 1.06
49 | CTTTTAATAA | 1.02
50 | CTTTTACCCA | 1.04
51 | CTTTTTGATC | 1.04
52 | CTTTTTGGTT | 0.986

Row | Sequence | switch fluorescence ratio
53 | GAAAAAGGCT | 1.12
54 | GAAAACACGT | 1
55 | GAAAAGTAGG | 1.02
56 | GAAAAGTTTG | 1.06
57 | GAAAATAGGG | 0.989
58 | GAAAATGGTT | 0.997
59 | GAAAATTAGA | 0.995
60 | GAAACATCAT | 1.01
61 | GAAACGTACG | 1.21
62 | GAAACTAGCA | 1
63 | GAAACTGTGG | 1.12
64 | GAAAGAATTT | 1.02
65 | GAAAGATATT | 1.01
66 | GAAAGCCAGG | 1.16
67 | GAAAGGACAA | 1.07
68 | GAAAGGCGTA | 1.02
69 | GAAAGGCGTT | 1.25
70 | GAAAGGTAAC | 1.02
71 | GAAAGTAGAT | 1.03
72 | GAAAGTGGGT | 1.01
73 | GAAAGTGTTA | 0.996
74 | GAAAGTTTTT | 0.966
75 | GAAATAATAC | 1.09
76 | GAAATATTCC | 1.31
77 | GAAATCCCGG | 0.909
